The subject of test [1] is HSkMC (human skeletal muscle cells). Nature of the test: cytotoxicity call (relative viability < 0.9). The following applies: 10 µM.
Test [2] concerns HepG2. Nature of the test: cytotoxicity call (relative viability < 0.9). Particulars: 10 µM.
Test [3] deals with S. aureus RN4220. Kind of test: growth inhibition call (relative growth <= 0.2). Particulars: 50 µM.

We go through 25 compounds from the antibiotic and cytotoxicity screens of Wong et al. (2023).

The other results are listed elsewhere or left out.

Take `COc1ccc(NC(=O)Nc2ccc3c(c2)C(=O)N([C@H](C)CO)C[C@H](C)[C@H](CN(C)C(=O)Nc2ccc(C(F)(F)F)cc2)OCCCC[C@H](C)O3)cc1`: the cytotoxicity call in test [1] and in test [2] was “inactive” each time. In addition, the growth inhibition call in test [3] was “inactive”.
As for `COc1cccc(NC(=O)N(C)C[C@@H]2Oc3cc(C#CC4(O)CCCC4)ccc3S(=O)(=O)N([C@@H](C)CO)C[C@@H]2C)c1`, the cytotoxicity call in test [1] and in test [2] was “inactive” in each case. The growth inhibition call in test [3] was “inactive”.
In the case of `Cc1ccc(S(=O)(=O)Nc2ccc3c(c2)C(=O)N([C@@H](C)CO)C[C@H](C)[C@@H](CN(C)Cc2ccccc2)OCCCC[C@H](C)O3)cc1`, the cytotoxicity call in test [1] and in test [2] was “inactive” each time. Also, the growth inhibition call in test [3] was “inactive”.
`O=C(C[C@H]1C=C[C@H](NC(=O)c2cccnc2)[C@@H](CO)O1)NCCN1CCCCC1`: the cytotoxicity call in test [1] was “inactive”. In addition, the cytotoxicity call in test [2] was “active”. Also, the growth inhibition call in test [3] is “inactive”.
Consider `C[C@@H]1CCCCO[C@@H](CN(C)Cc2ccc3c(c2)OCO3)[C@@H](C)CN([C@@H](C)CO)C(=O)c2cc(NC(=O)Cc3ccccc3)ccc2O1`, for which the cytotoxicity call in test [1] and in test [2] was “inactive” throughout. Besides, the growth inhibition call in test [3] is “inactive”.
As to `COCC#Cc1ccc2c(c1)O[C@H](CN(C)C(=O)C1CCOCC1)[C@@H](C)CN([C@H](C)CO)S2(=O)=O`, the cytotoxicity call in test [1] and in test [2] was “inactive” each time. Further, the growth inhibition call in test [3] is “inactive”.
As for `C[C@@H]1CN([C@H](C)CO)C(=O)Cc2cc(N(C)C)ccc2O[C@@H]1CN(C)S(=O)(=O)c1cn(C)cn1`, the cytotoxicity call in test [1] and in test [2] was “inactive” each time. For the same compound, the growth inhibition call in test [3] is “inactive”.
For the compound `O=C(CN1CCOCC1)NCC[C@H]1CC[C@H](NS(=O)(=O)c2ccc(F)cc2)[C@H](CO)O1`, the cytotoxicity call in test [1] and in test [2] was “inactive” in each case. The growth inhibition call in test [3] is “inactive”.
Consider `COc1ccc(NC(=O)N(C)C[C@H]2Oc3ncc(C#CCN(C)C)cc3C(=O)N([C@H](C)CO)C[C@@H]2C)cc1`, for which the cytotoxicity call in test [1] and in test [2] was “inactive” in each case. Also, the growth inhibition call in test [3] was “inactive”.
In the case of `C[C@@H]1CCCCO[C@@H](CN(C)S(=O)(=O)c2cccs2)[C@@H](C)CN([C@@H](C)CO)C(=O)c2cc(NS(=O)(=O)c3ccc(Cl)cc3)ccc2O1`, the cytotoxicity call in test [1] was “inactive”. Also, the cytotoxicity call in test [2] was “active”. In addition, in test [3], the growth inhibition call is “inactive”.
Take `Cc1ccc(S(=O)(=O)N2C[C@@H](O)COC[C@@H]3O[C@H](CC(=O)NCc4ccc(Cl)c(Cl)c4)CC[C@H]32)cc1`: the cytotoxicity call in test [1] and in test [2] was “inactive” in each case. Moreover, the growth inhibition call in test [3] was “inactive”.
With `C[C@H]1CN([C@@H](C)CO)C(=O)c2cc(NC(=O)CCC(F)(F)F)ccc2O[C@H]1CN(C)Cc1ccc(C(F)(F)F)cc1`, the cytotoxicity call in test [1] and in test [2] was “inactive” in each case. For the same compound, the growth inhibition call in test [3] was “inactive”.
With `COc1ccc(S(=O)(=O)N(C)C[C@@H]2Oc3cc(-c4ccccc4OC)ccc3S(=O)(=O)N([C@@H](C)CO)C[C@H]2C)cc1`, the cytotoxicity call in test [1] and in test [2] was “inactive” each time. Moreover, in test [3], the growth inhibition call was “inactive”.
Turning to `Cc1n[nH]c(N/N=C/c2ccccn2)nc1=O`, the cytotoxicity call in test [1] and in test [2] was “active” in each case. Besides, the growth inhibition call in test [3] is “inactive”.
`C[C@H]1CN([C@@H](C)CO)C(=O)c2cc(NC(=O)Nc3cccc4ccccc34)ccc2O[C@@H]1CN(C)C(=O)Nc1cccc2ccccc12`: the cytotoxicity call in test [1] and in test [2] was “inactive” throughout. Moreover, the growth inhibition call in test [3] was “inactive”.
Take `CCO[C@H]1OC(C(=O)N2CCN(Cc3ccccc3)CC2)=C[C@@H](C)[C@@H]1CCCOC(=O)NCCCCCC(=O)NO`: the cytotoxicity call in test [1] and in test [2] was “inactive” throughout. The growth inhibition call in test [3] was “inactive”.
On to `CC(C)NC(=O)N(C)C[C@@H]1OCCCC[C@@H](C)Oc2ccc(NC(=O)Nc3ccc(C(F)(F)F)cc3)cc2C(=O)N([C@@H](C)CO)C[C@H]1C`, for which the cytotoxicity call in test [1] and in test [2] was “inactive” in each case. Further, the growth inhibition call in test [3] is “inactive”.
`COc1ccc(NC(=O)Nc2ccc3c(c2)C(=O)N([C@@H](C)CO)C[C@H](C)[C@@H](CN(C)Cc2ccc(C(F)(F)F)cc2)OCCCC[C@H](C)O3)cc1`: the cytotoxicity call in test [1] and in test [2] was “inactive” each time. For the same compound, the growth inhibition call in test [3] is “inactive”.
For the compound `Nc1cccc(O)c1`, the cytotoxicity call in test [1] and in test [2] was “inactive” throughout. For the same compound, the growth inhibition call in test [3] is “inactive”.
Regarding `C/C(=N\N)c1nnn(-c2nonc2N)c1C`, the cytotoxicity call in test [1] and in test [2] was “inactive” each time. The growth inhibition call in test [3] is “inactive”.
`CC(=O)n1cc([C@@H]2C=C(C(=O)N3CCN(C)CC3)O[C@H](OCc3ccc(CO)cc3)C2)c2ccccc21`: the cytotoxicity call in test [1] and in test [2] was “inactive” in each case. Moreover, in test [3], the growth inhibition call was “inactive”.
As to `Cc1noc(C)c1NC(=O)Nc1ccc2c(c1)C(=O)N([C@@H](C)CO)C[C@@H](C)[C@H](CN(C)C(=O)Nc1ccc(F)cc1)OCCCC[C@@H](C)O2`, the cytotoxicity call in test [1] and in test [2] was “inactive” in each case. In addition, the growth inhibition call in test [3] was “inactive”.
Consider `C[C@@H]1CN([C@@H](C)CO)C(=O)Cc2cc(NS(=O)(=O)c3ccc(Cl)cc3)ccc2O[C@H]1CN(C)S(=O)(=O)c1cn(C)cn1`, for which the cytotoxicity call in test [1] and in test [2] was “inactive” each time. Besides, the growth inhibition call in test [3] was “inactive”.
For `C[C@@H]1CN([C@@H](C)CO)C(=O)c2cc(NC(=O)CCCCCC(=O)Nc3ccccc3N)ccc2O[C@H]1CN(C)C(=O)Nc1ccc(F)cc1`, the cytotoxicity call in test [1] and in test [2] was “inactive” each time. Further, the growth inhibition call in test [3] is “inactive”.
In the case of `CO[C@@H](CN(C)C(=O)c1ccc2c(c1)OCO2)[C@@H](C)CN([C@@H](C)CO)S(=O)(=O)c1ccc(C)cc1`, the cytotoxicity call in test [1] and in test [2] was “inactive” throughout. Besides, the growth inhibition call in test [3] was “inactive”.
